Source: the antibiotic and cytotoxicity screens of Wong et al. (2023)
Some of the results follow.

Columns and labels:
HSkMC = human skeletal muscle cells; assay: cytotoxicity call (relative viability < 0.9); settings: 10 µM
HepG2 = assay: cytotoxicity call (relative viability < 0.9); settings: 10 µM
S. aureus RN4220 = assay: growth inhibition call (relative growth <= 0.2); settings: 50 µM

SMILES | cytotoxicity call (HSkMC) | cytotoxicity call (HepG2) | growth inhibition call (S. aureus RN4220)
C[C@@H](N)Cc1cnc[nH]1 | inactive | inactive | inactive
C[C@@H]1C(=O)NC[C@H]2CN(CC3CC3)C[C@@H]21 | inactive | inactive | inactive
C[C@H]1O[C@H](n2cnc3c(N)ncnc32)C[C@@H]1O | inactive | inactive | inactive
C[C@H](CO)N1C[C@H](C)[C@@H](CN(C)C(=O)Oc2cccc3ccccc23)OCc2cn(nn2)CCCC1=O | inactive | inactive | inactive
CCN(C(C)=O)c1cccc(-c2ccnc3c(C#N)cnn23)c1 | inactive | inactive | inactive
Nc1ncccc1CN1CC[C@]2(CC(=O)NC2=O)C1 | inactive | inactive | inactive
N#CC(OC1OC(COC2OC(CO)C(O)C(O)C2O)C(O)C(O)C1O)c1ccccc1 (stereo not drawn) | inactive | inactive | inactive
O=c1n(Cl)c(=O)n(Cl)c(=O)n1Cl | inactive | inactive | inactive
CN(CC[C@@H](N)CC(=O)N[C@H]1C=C[C@H](n2ccc(N)nc2=O)O[C@@H]1C(=O)O)C(=N)N | inactive | inactive | inactive
[N-]=[N+]=NCc1ccccc1C[C@]1(C(=O)NCCN2CCOCC2)N=C(c2ccc(OCCCO)cc2)O[C@H]1c1ccccc1N=[N+]=[N-] | inactive | active | inactive
Nc1ccc([As](=O)(O)O)cc1 | inactive | inactive | inactive
COc1ccc(OC(=O)N(C)C[C@@H]2OCc3ccccc3-c3c(n(C)c4ccccc34)C(=O)N([C@H](C)CO)C[C@H]2C)cc1 | active | inactive | inactive
Nc1ccccc1-c1ccccc1 | inactive | inactive | inactive
NCCc1ccc(O)cc1 | inactive | inactive | inactive
CCN(C)C(=O)Oc1cccc(C(C)N(C)C)c1.O=C(O)C(O)C(O)C(=O)O (stereo not drawn) | inactive | inactive | inactive
O=C(NN=Cc1ccc([N+](=O)[O-])o1)c1cc([N+](=O)[O-])cc([N+](=O)[O-])c1O | inactive | inactive | inactive
C#CC1(O)CCC2C3CCC4=CC(=O)CCC4(C)C3CCC21C (stereo not drawn) | inactive | active | inactive
Cl.NCC(CC(=O)O)c1ccc(Cl)cc1 (racemic) | inactive | inactive | inactive
COc1ccc([C@@H](CN)C(C)C)cc1OC | inactive | inactive | inactive
O=[N+]([O-])C(Br)(CO)CO | active | active | active
NC[C@H](CC(=O)O)c1ccc(Cl)cc1 | inactive | inactive | inactive

SMILES | cytotoxicity call (HSkMC) | cytotoxicity call (HepG2) | growth inhibition call (S. aureus RN4220)
ClC(Cl)=C(c1ccc(Cl)cc1)c1ccc(Cl)cc1 | inactive | inactive | inactive
CCCC12CNCC(C)(CNC1)C2=O | inactive | inactive | inactive
CC(C)(O)C1C2OC(=O)C1C1(O)CC3OC34C(=O)OC2C14C (stereo not drawn) | inactive | inactive | inactive
Nc1c[n+](CCc2ccccc2)no1 | inactive | inactive | inactive
OCCN[C@@H]1c2ccccc2[C@H]2CNC[C@H]21 | inactive | inactive | inactive
N.N.[Cl][Pt][Cl] | inactive | inactive | inactive
OC[C@@H]1[C@@H](O)[C@H](O)[C@H]2[C@@H](O)CCN21 | inactive | inactive | inactive
CCOc1cc(C=O)ccc1O | inactive | inactive | inactive
COC(=O)C[C@H]1CC[C@H]2NC[C@@H](O)COC[C@@H]2O1 | inactive | inactive | inactive
Nc1nc(Cl)ncc1[N+](=O)[O-] | inactive | inactive | inactive
CC12CCC3C(CC=C4CC(O)CCC43C)C1CCC2=O (stereo not drawn) | inactive | inactive | inactive
CC(=O)[O][Hg][c]1ccccc1 | active | active | inactive
CN(C)Cc1c[nH]c2ccccc12 | inactive | inactive | inactive
C[C@H](CO)N1C[C@H](C)[C@H](CN(C)C(=O)Oc2ccc3ccccc3c2)OCc2cn(nn2)CCCC1=O | inactive | inactive | inactive
C[C@H]1C[C@@H](O)[C@]2(O)[C@@]13CC(=O)OC[C@@]2(C)[C@](C)(O)C(=O)C3 | inactive | inactive | inactive
O=C1C=C2C=CC3CC2(O1)C1CCCCN31 (stereo not drawn) | inactive | active | inactive
CCOP(=S)(OCC)Oc1cc(C)nc(C(C)C)n1 | inactive | inactive | inactive
NCCc1ccc(C(=O)c2ccccc2)cc1 | inactive | inactive | inactive
CC(=O)Nc1ccc(Cl)cc1C | inactive | inactive | inactive
O=[N+]([O-])c1ccc(N(CCO)CCO)c2c1no[n+]2[O-] | active | active | active
CC(C)C[C@@H](NC(=O)[C@H](Cc1ccccc1)NC(=O)CNC(=O)[C@@H](C)NC(=O)[C@@H](N)Cc1ccc(O)cc1)C(=O)O | inactive | inactive | inactive

SMILES | cytotoxicity call (HSkMC) | cytotoxicity call (HepG2) | growth inhibition call (S. aureus RN4220)
CN1CCOCC12CCN(c1ncccn1)CC2 | inactive | inactive | inactive
C[N+]1(C)C2CC(OC(=O)C(CO)c3ccccc3)CC1C1OC12.[Br-] (stereo not drawn) | inactive | inactive | inactive
CC=C(C)C(=O)OC1CC(OC(C)=O)C2(C(=O)OC)COC3C2C12COC(O)(C(=O)OC)C2C(C)(C12OC1(C)C1CC2OC2OC=CC21O)C3O (stereo not drawn) | inactive | inactive | inactive
C[N+]1(C)CCCC(OC(=O)C(O)(c2ccccc2)c2ccccc2)C1.[Br-] (stereo not drawn) | inactive | inactive | inactive
C[N+](C)(C)CC(=O)[O-].Cl | inactive | inactive | inactive
CCCCC(=O)N1CC[C@H]2CNC[C@H]21 | inactive | inactive | inactive
CC(C)c1ccc2[nH]c(=O)c(CCN)cc2c1 | inactive | inactive | inactive
COc1cc2c(cc1OC)C(C)NCC2 (stereo not drawn) | inactive | inactive | inactive
C#CCOS(=O)OC1CCCCC1Oc1ccc(C(C)(C)C)cc1 (stereo not drawn) | inactive | inactive | inactive
NC1=NC(=O)N2C[C@@H]12 | inactive | inactive | inactive
CC(C)N(C)C[C@H]1CO[C@]2(CNCCOC2)C1 | inactive | inactive | inactive
CO[C@@H]1C[C@@H](C[C@H]2CC[C@H](C)[C@H]([C@@H](C)C(=O)O)O2)O[C@]2(O[C@](C)([C@H]3CC[C@@](C)([C@H]4O[C@@H]([C@H]5O[C@@](O)(CO)[C@H](C)C[C@@H]5C)C[C@@H]4C)O3)C[C@H]2C)[C@@H]1C | active | active | active
CCCC(C)C1(CC)C(=O)N=C([S-])NC1=O.[Na+] (stereo not drawn) | inactive | inactive | inactive
Nc1ccc(-c2ccccc2)cc1 | inactive | inactive | inactive
O=c1ccc(=O)[nH][nH]1 | inactive | inactive | inactive
O=[N+]([O-])c1ccc([As](=O)(O)O)cc1 | inactive | inactive | inactive
CN1CCCCC1c1ccc(-c2cccnc2)nc1.Cl (stereo not drawn) | inactive | inactive | inactive
CCCCCCCCCCCCCCCC[N+](C)(C)C.[Br-] | active | active | inactive
C[C@@H]1O[C@@H](O[C@H]2CC[C@]3(C=O)[C@H]4CC[C@]5(C)[C@@H](C6=CC(=O)OC6)CC[C@]5(O)[C@@H]4CC[C@]3(O)C2)[C@H](O)[C@H](O)[C@H]1O | active | active | inactive
C[C@@H]1CN([C@@H](C)CO)C(=O)c2cc(NC(=O)Nc3ccccc3)ccc2O[C@@H](C)CCCCO[C@H]1CN(C)C(=O)Oc1ccccc1 | inactive | inactive | inactive
CCC1=C[C@@H]2[C@H](C1)C[C@]2(CN)CC(=O)O | inactive | inactive | inactive

SMILES | cytotoxicity call (HSkMC) | cytotoxicity call (HepG2) | growth inhibition call (S. aureus RN4220)
CC1(C)C(C=C(Cl)Cl)C1C(=O)OC(C#N)c1cccc(Oc2ccccc2)c1 (stereo not drawn) | inactive | inactive | inactive
COC(C)(C)CCCC(C)CC=CC(C)=CC(=O)OC(C)C (stereo not drawn) | inactive | inactive | inactive
C[C@@H]1CN([C@@H](C)CO)C(=O)CCCn2cc(nn2)CO[C@@H]1CN(C)C(=O)Oc1cccc2ccccc12 | inactive | inactive | inactive
COC(=O)[C@]1(Cc2ccccc2CN=[N+]=[N-])N=C(c2ccc(OCCCO)cc2)O[C@@H]1c1ccccc1N=[N+]=[N-] | inactive | active | inactive
O=[N+]([O-])c1cc([As](=O)(O)O)ccc1O | inactive | inactive | inactive
CCC(C)C(=O)OC1CC2(C)C(c3ccoc3)OC(=O)CC23OC2(C)OC34C(OC(C)=O)C3(O)C(OC(=O)C5(C)OC5C)C5(C)CC3(O)C(C)(C5CC(=O)OC)C14O2 (stereo not drawn) | inactive | inactive | inactive
CC(=O)OC[C@]12CCC(C)=C[C@H]1O[C@@H]1[C@H](O)[C@@H](OC(C)=O)[C@@]2(C)[C@]12CO2 | active | active | inactive
Cc1cccc(N2CCNCC2)n1 | inactive | inactive | inactive
C=C(C)[C@H]1CN[C@H](C(=O)O)[C@@H]1CC(=O)O | inactive | inactive | inactive
CN1[C@H](CO)[C@H]2c3ccccc3NC[C@H]21 | inactive | inactive | inactive
C[C@@H](N)[C@@H](O)c1ccccc1 | inactive | inactive | inactive
CC1=C[C@H]2O[C@@H]3[C@H](O)[C@@H](O[C@H]4O[C@H](CO)[C@@H](O)[C@H](O)[C@H]4O)[C@](C)([C@@]2(CO)CC1)[C@]31CO1 | active | active | inactive
O=C(O)CN1C[C@@H]2C(NC(=O)c3ccno3)[C@H]2C1 (stereo partly drawn) | inactive | inactive | inactive
COc1cc2occc2c2oc(=O)ccc12 | inactive | inactive | inactive
CCC(N)C(O)c1ccc(O)c(O)c1.Cl (stereo not drawn) | inactive | active | inactive
Cc1o[nH]c(=O)c1C[C@H](N)C(=O)O | inactive | inactive | inactive
COc1ccc(OC(=O)N(C)C[C@@H]2OCc3ccccc3-c3c(n(C)c4ccccc34)C(=O)N([C@H](C)CO)C[C@@H]2C)cc1 | inactive | inactive | inactive
Cc1nc[nH]c1CCN | inactive | inactive | inactive
